Measured values reported in the supplement of paper PMC8728848.
Some of the results follow.

What was measured:
Assay in all cases: glycan array binding signal (z-score within array); higher = stronger binding
Conditions in all cases: glycan notation: IUPAC condensed, linker removed
[1] = molecular target: Gal(b1-4)GlcNAc(b1-2)Man(a1-3)[Gal(b1-4)GlcNAc(b1-2)Man(a1-6)]Man(b1-4)GlcNAc(b1-4)[Fuc(a1-6)]GlcNAc
Procedure, shortened: (§1)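 Glycan array binding is given as a within-array Z-score, which can be read as non-binding when negative. The arrays, 3228 of them, came from the Consortium for Functional Glycomics database and were retained only where the protein sequence was available. Z-scores were averaged across arrays of the same protein sequence at different concentrations or buffers and across linkers.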

[2] = molecular target: Gal(b1-4)GlcNAc(b1-2)Man(a1-3)[Gal(b1-4)GlcNAc(b1-2)Man(a1-6)][Gal(b1-4)GlcNAc(b1-4)]Man(b1-4)GlcNAc(b1-4)[Fuc(a1-6)]GlcNAc
Procedure, shortened: as §1

[3] = molecular target: Gal(b1-4)GlcNAc(b1-2)Man(a1-3)[Gal(b1-4)GlcNAc(b1-2)Man(a1-6)][GlcNAc(b1-4)]Man(b1-4)GlcNAc(b1-4)[Fuc(a1-6)]GlcNAc
Procedure, shortened: as §1

[4] = molecular target: Gal(b1-4)GlcNAc(b1-2)Man(a1-3)[GlcNAc(b1-2)Man(a1-6)]Man(b1-4)GlcNAc(b1-4)GlcNAc
Procedure, shortened: as §1

[5] = molecular target: Gal(b1-4)GlcNAc(b1-2)Man(a1-3)[GlcNAc(b1-4)][Gal(b1-4)GlcNAc(b1-2)Man(a1-6)]Man(b1-4)GlcNAc(b1-4)GlcNAc
Procedure, shortened: as §1

[6] = molecular target: Gal(b1-4)GlcNAc(b1-2)Man(a1-3)[Man(a1-6)]Man(b1-4)GlcNAc(b1-4)GlcNAc
Procedure, shortened: as §1

[7] = molecular target: Gal(b1-4)GlcNAc(b1-2)Man(a1-6)Man(b1-4)GlcNAc(b1-4)GlcNAc
Procedure, shortened: as §1

[8] = molecular target: Gal(b1-4)GlcNAc(b1-2)Man(a1-6)[GlcNAc(b1-2)Man(a1-3)]Man(b1-4)GlcNAc(b1-4)GlcNAc
Procedure, shortened: as §1

[9] = molecular target: Gal(b1-4)GlcNAc(b1-2)Man(a1-6)[Man(a1-3)]Man(b1-4)GlcNAc(b1-4)GlcNAc
Procedure, shortened: as §1

[10] = molecular target: Gal(b1-4)GlcNAc(b1-2)[Gal(b1-4)GlcNAc(b1-4)]Man(a1-3)[Gal(b1-4)GlcNAc(b1-2)Man(a1-6)]Man(b1-4)GlcNAc(b1-4)GlcNAc
Procedure, shortened: as §1

[11] = molecular target: Gal(b1-4)GlcNAc(b1-2)[Gal(b1-4)GlcNAc(b1-4)]Man(a1-3)[Gal(b1-4)GlcNAc(b1-2)[Gal(b1-4)GlcNAc(b1-6)]Man(a1-6)]Man(b1-4)GlcNAc(b1-4)GlcNAc
Procedure, shortened: as §1

[12] = molecular target: Gal(b1-4)GlcNAc(b1-2)[Gal(b1-4)GlcNAc(b1-4)]Man(a1-3)[GlcNAc(b1-4)][Gal(b1-4)GlcNAc(b1-2)Man(a1-6)]Man(b1-4)GlcNAc(b1-4)GlcNAc
Procedure, shortened: as §1

[13] = molecular target: Gal(b1-4)GlcNAc(b1-2)[Gal(b1-4)GlcNAc(b1-4)]Man(a1-3)[GlcNAc(b1-4)][Gal(b1-4)GlcNAc(b1-2)[Gal(b1-4)GlcNAc(b1-6)]Man(a1-6)]Man(b1-4)GlcNAc(b1-4)GlcNAc
Procedure, shortened: as §1

[14] = molecular target: Gal(b1-4)GlcNAc(b1-2)[Gal(b1-4)GlcNAc(b1-6)]Man(a1-6)[Gal(b1-4)GlcNAc(b1-2)Man(a1-3)]Man(b1-4)GlcNAc(b1-4)GlcNAc
Procedure, shortened: as §1

[15] = molecular target: Gal(b1-4)GlcNAc(b1-2)[Gal(b1-4)GlcNAc(b1-6)]Man(a1-6)[Gal(b1-4)GlcNAc(b1-2)Man(a1-3)]Man(b1-4)GlcNAc(b1-4)[Fuc(a1-6)]GlcNAc
Procedure, shortened: as §1

[16] = molecular target: Gal(b1-4)GlcNAc(b1-2)[Gal(b1-4)GlcNAc(b1-6)]Man(a1-6)[GlcNAc(b1-4)][Gal(b1-4)GlcNAc(b1-2)Man(a1-3)]Man(b1-4)GlcNAc(b1-4)GlcNAc
Procedure, shortened: as §1

[17] = molecular target: Gal(b1-4)GlcNAc(b1-2)[Gal(b1-4)GlcNAc(b1-6)]Man(a1-6)[GlcNAc(b1-4)][Gal(b1-4)GlcNAc(b1-2)[Gal(b1-4)GlcNAc(b1-4)]Man(a1-3)]Man(b1-4)GlcNAc(b1-4)[Fuc(a1-6)]GlcNAc
Procedure, shortened: as §1

[18] = molecular target: Gal(b1-4)GlcNAc(b1-3)Gal(b1-3)GalNAc
Procedure, shortened: as §1

[19] = molecular target: Gal(b1-4)GlcNAc(b1-3)Gal(b1-3)GlcNAc
Procedure, shortened: as §1

[20] = molecular target: Gal(b1-4)GlcNAc(b1-3)Gal(b1-4)Glc
Procedure, shortened: as §1

[21] = molecular target: Gal(b1-4)GlcNAc(b1-3)Gal(b1-4)GlcNAc
Procedure, shortened: as §1

[22] = molecular target: Gal(b1-4)GlcNAc(b1-3)Gal(b1-4)GlcNAc(b1-2)Man(a1-3)[Gal(b1-4)GlcNAc(b1-3)Gal(b1-4)GlcNAc(b1-2)Man(a1-6)]Man(b1-4)GlcNAc(b1-4)GlcNAc
Procedure, shortened: as §1

[23] = molecular target: Gal(b1-4)GlcNAc(b1-3)Gal(b1-4)GlcNAc(b1-2)Man(a1-3)[Gal(b1-4)GlcNAc(b1-3)Gal(b1-4)GlcNAc(b1-2)Man(a1-6)]Man(b1-4)GlcNAc(b1-4)[Fuc(a1-6)]GlcNAc
Procedure, shortened: as §1

B1: Pwp3 (Candida glabrata) (protein)
chain: MGSSHHHHHHSSGLVPRGSHMASKNPVDFTTVCQFPDNFSKKPGFLATTARLGLWITGNSYKELLNYPGTFTLTTQQASTTTPNIQLRGTDLFTTIYGLTVYPLYLLVELQGYFVPTQSGMYTFSLTGSDDAAIIFIGNPSTFPCDAFKTWPQATANDITVTDSINPSRTLYMVKGVAYPLRIAYYNGLGNGVLNAAFTDPSGTKRTDWNGYIWQYDQCSTCTYK
Q: B1 was tested. Which “glycan array binding signal (z-score)” value [1] did it give?
A: -0.297

Q: What about the “glycan array binding signal (z-score)” value [2] of the same binder?
A: -0.445

Q: What about the “glycan array binding signal (z-score)” value [3] of the same binder?
A: -0.02

Q: And the “glycan array binding signal (z-score)” value [4]?
A: -0.096

Q: And the “glycan array binding signal (z-score)” value [5]?
A: 0.003

Q: And the “glycan array binding signal (z-score)” value [6]?
A: 1.3

Q: What about the “glycan array binding signal (z-score)” value [7] of the same binder?
A: -0.162

Q: What about the “glycan array binding signal (z-score)” value [8] of the same binder?
A: -0.208

Q: What about the “glycan array binding signal (z-score)” value [9] of the same binder?
A: 0.511

Q: And the “glycan array binding signal (z-score)” value [10]?
A: -1.19

Q: And the “glycan array binding signal (z-score)” value [11]?
A: -0.044

Q: And the “glycan array binding signal (z-score)” value [12]?
A: -0.137

Q: And the “glycan array binding signal (z-score)” value [13]?
A: 0.215

Q: And the “glycan array binding signal (z-score)” value [14]?
A: -0.324

Q: And the “glycan array binding signal (z-score)” value [15]?
A: -0.106

Q: And the “glycan array binding signal (z-score)” value [16]?
A: -0.058

Q: And the “glycan array binding signal (z-score)” value [17]?
A: -0.123

Q: What about the “glycan array binding signal (z-score)” value [18] of the same binder?
A: -0.558

Q: What about the “glycan array binding signal (z-score)” value [19] of the same binder?
A: 2.55

Q: What about the “glycan array binding signal (z-score)” value [20] of the same binder?
A: -0.475

Q: What about the “glycan array binding signal (z-score)” value [21] of the same binder?
A: 2.11

Q: What about the “glycan array binding signal (z-score)” value [22] of the same binder?
A: 0.908

Q: What about the “glycan array binding signal (z-score)” value [23] of the same binder?
A: 3.5
